Out of some 52,000 compounds screened, about 1,700 (3.3%) were called active. Cut-off read from the data, not from the text of the source: active = survival mostly below about 52% (no sharp cut-off); inactive = mostly above about 56%. The list shows a part of the results.
These compounds were tested on Wild type (assay: growth inhibition of S. aureus wild type versus tarO mutant, primary screen, teichoic acid synthesis inhibitors, RN4220, OD600 (AID 463173)). Details: S. aureus RN4220 wild type/DeltatarO growth, OD600, 18 h, stronger effect = lower value, screened at 18.75 µg/mL (by protocol).
`Cc1ccccc1NC(=O)CSc1nc(-c2ccc(F)cc2)nc2c1Cc1ccccc1O2` was tested, and the survival was inactive: 77%. For `CCC(c1nnnn1Cc1ccccc1)N(Cc1cccs1)Cc1cc2ccc(C)cc2[nH]c1=O` (configuration not stated), the survival was inactive: 115%. With `O=C(CCC1N=C2c3ccccc3N=C(SCc3ccccc3Cl)N2C1=O)NCCc1ccccc1` (configuration not stated) the survival was inactive: 119%. `Cc1nn(C(=O)c2ccccc2)c2c1C(=O)CC(C)(C)C2` was tested, and the survival was inactive: 117%. `Cn1c(=O)n(-c2ccc3c(c2)OCO3)c2nc(-c3ccc(Cl)cc3)nc(C(N)=O)c21` was tested, and the survival was inactive: 76%. In the case of `COc1cc(OC)c(NC(=O)C(c2ccccc2)N2Cc3ccccc3C2=O)cc1Cl` (configuration not stated), the survival is reported as inactive: 69%. With `COc1ccc(NC(=O)C2CCN(S(=O)(=O)c3ccc4[nH]c(=O)ccc4c3)CC2)cc1Cl` the survival was inactive: 130%. In the case of `CCS(=O)(=O)N1CCN(C(=O)c2ccccc2Cl)CC1`, the survival is reported as inactive: 98%. `CCc1nnc(SCc2cccc(F)c2)c2cc3sc(C)cc3n12` was tested, and the survival was inactive: 83%. In the case of `CCOc1ccc(N2CC(c3nc4ccccc4n3CCCOc3ccccc3OC)CC2=O)cc1` (configuration not stated), the survival is reported as inactive: 95%. `CCS(=O)(=O)N1CC(=O)N(c2ccc(Cl)cc2C)C(C)(C(=O)NC2CCCCCC2)C1` (configuration not stated) was tested, and the survival was inactive: 73%. `COc1ccc(CCNC(=O)C2(c3cccs3)CCOCC2)cc1` was tested, and the survival was inactive: 127%. In the case of `O=C(Nc1nonc1-c1ccc(Cl)cc1)c1ccccc1F`, the survival is reported as inactive: 84%. With `CCOC(=O)c1scc(-c2ccccc2)c1S(=O)(=O)Nc1ccc(N(C)C)cc1` the survival was inactive: 68%. In the case of `O=C(/C=C/c1ccccc1)NC1CCSC1=O` (configuration not stated), the survival is reported as inactive: 108%. `CC(C)CN(CCCNC(=O)c1cc(-c2ccc(Br)s2)nc2ccccc12)CC(C)C` was tested, and the survival was inactive: 97%. With `COc1ccc(N2CC(NC(=O)/C=C\c3ccc4c(c3)OCO4)CC2=O)cc1` (configuration not stated) the survival was inactive: 73%. `COCCCNC(=O)c1ccc(Cn2c(=O)c3ccccc3n(CC(=O)Nc3c(C)cccc3C)c2=O)cc1` was tested, and the survival was inactive: 83%. For `CCOc1cc(C(=O)Nc2ccc3nc(Nc4cccc(Cl)c4)cc(C)c3c2)cc(OCC)c1OCC`, the survival was inactive: 73%. `Cc1nn2c(C)c(C(=O)N3CCN(c4ccccc4F)CC3)cnc2c1-c1ccc(F)cc1` was tested, and the survival was inactive: 78%. For `Cc1nnc(SCc2cc(=O)n3cccc(C)c3n2)s1`, the survival was inactive: 89%. In the case of `CCCC(CCC)C(=O)Nc1cccc(-c2nc3cccnc3s2)c1C`, the survival is reported as inactive: 109%. With `COc1cccc(-c2nc(CS(=O)(=O)CC(=O)NCCc3ccc(OC)cc3OC)c(C)o2)c1` the survival was inactive: 83%. With `Cc1cccc(CCNC(=O)C2CCC(CNS(=O)(=O)c3ccccc3)CC2)c1` (configuration not stated) the survival was inactive: 85%. With `Cc1nc2ccn(Cc3ccco3)c(=O)c2cc1C(=O)NCc1ccccc1F` the survival was inactive: 75%. With `O=C(NCc1ccccc1Cl)C1CCN(S(=O)(=O)Cc2ccccc2)CC1` the survival was inactive: 89%. `CCOC(=O)c1ccc(NC(=O)c2cnn(-c3ccc(C)cc3C)c2C2CCN(C(=O)OC(C)(C)C)CC2)cc1` was tested, and the survival was inactive: 74%. In the case of `COc1ccc(Cl)cc1NC(=O)CSC1=Nc2ccccc2C2=NC(CCC(=O)NCc3ccc(F)cc3)C(=O)N12` (configuration not stated), the survival is reported as inactive: 88%. In the case of `O=C(Nc1ccc(F)c(Cl)c1)C1CCN(C(=O)c2ccc(F)cc2)CC1`, the survival is reported as inactive: 70%. In the case of `N#Cc1ccccc1Cn1c(=O)n(CCCC(=O)NCc2ccccc2Cl)c(=O)c2ccccc21`, the survival is reported as inactive: 152%. For `CCSc1ncc(Cl)c(C(=O)Nc2nnc(CC)s2)n1`, the survival was inactive: 88%. `Cc1cccc(NC(=O)CSc2ncc(-c3ccccc3)[nH]2)c1C` was tested, and the survival was inactive: 62%. `O=C(c1ccccc1F)N1c2ncnn2C2(CCCCC2)[C@@H]2CCCC[C@@H]21` was tested, and the survival was inactive: 117%. For `Cc1cccc(Nc2nc(N)nc(N)c2S(=O)(=O)c2ccccc2)c1`, the survival was inactive: 70%. With `CN1CCc2c(sc(N)c2C(=O)O)C1` the survival was inactive: 93%. For `CCC(C(=O)NCCc1ccccc1)n1nc(C)c2sc3ccccc3c2c1=O` (configuration not stated), the survival was inactive: 80%. For `COc1ccc(C2=C(C)C(N3CCC(C(=O)Nc4ccccc4F)CC3)=NS2(=O)=O)cc1`, the survival was inactive: 57%. For `Cc1c(C)n(Cc2ccc(F)cc2)c2ccc(C(=O)N3CCN(c4ccc(F)cc4)CC3)cc12`, the survival was inactive: 75%. `O=C(COc1ccc(F)cc1)NCCCn1ccnc1` was tested, and the survival was inactive: 97%. In the case of `CCOc1ccc2oc(=O)cc(CN3CCN(C(=O)c4ccc(OC)c(OC)c4)CC3)c2c1`, the survival is reported as inactive: 88%. For `O=C(O)CC1OC(=O)c2ccccc21` (configuration not stated), the survival was inactive: 94%. With `O=C(C1CCN(c2ncnc3c2nc2n3CCCCC2)CC1)N1CCN(c2ccccc2F)CC1` the survival was inactive: 82%. For `Cc1ccc2oc(-c3ccc(Cl)c(NC(=O)Cc4ccccc4)c3)nc2c1`, the survival was inactive: 96%. For `COc1ccccc1CCNC(=O)Cc1ccc(NC(=O)N2CCSc3ncccc32)cc1`, the survival was inactive: 87%. In the case of `CCCNS(=O)(=O)c1cc(-c2nn3c(C)nnc3c3ccccc23)ccc1C`, the survival is reported as inactive: 78%. In the case of `COc1ccc(CNC(=O)c2cc3c(=O)n(Cc4cccnc4)ccc3nc2C)cc1`, the survival is reported as inactive: 32%. For `COc1ccccc1CNC(=O)c1cc2c(=O)oc3ccc(C)cc3c2s1`, the survival was inactive: 62%. `CCc1ccc(-c2nn(CC(=O)NC3CCCCC3)c3c2cnc2ccc(F)cc23)cc1` was tested, and the survival was inactive: 68%. For `CC(=O)N1CCCc2cc(S(=O)(=O)N3CCCC(C(=O)NCc4ccccc4Cl)C3)ccc21` (configuration not stated), the survival was inactive: 80%. `Cc1ccc(-n2c(=O)c3c4c(sc3n(Cc3cc(=O)n5cc(Cl)ccc5n3)c2=O)CCC4)cc1C` was tested, and the survival was inactive: 142%. With `CCOC(=O)c1ccccc1NC(=O)CN(c1cccc(C)c1C)S(=O)(=O)c1ccccc1` the survival was inactive: 118%. `CN(C)S(=O)(=O)c1ccc(S(=O)(=O)N2CCCC(C(=O)NC(C)(C)C)C2)cc1` (configuration not stated) was tested, and the survival was inactive: 99%. In the case of `CC(C)(C)c1ccc(OCc2nc3ccccc3n2CCOc2ccccc2)cc1`, the survival is reported as active: 7%. `Cc1cccc(C)c1OCc1nc2c3cnn(-c4ccccc4F)c3ncn2n1` was tested, and the survival was inactive: 119%. For `CCOc1ccccc1NC(=O)C1CCN(S(=O)(=O)c2ccc3[nH]c(=O)oc3c2)CC1`, the survival was inactive: 67%. With `CC1CCc2c(cc(-c3ccccc3)n2-c2ccc(C(=O)NC(C)C)cc2)C1` (configuration not stated) the survival was inactive: 106%. In the case of `CCc1cccc(OCC(=O)Nc2ccc(S(=O)(=O)Nc3ncccn3)cc2)c1`, the survival is reported as inactive: 70%. For `Cc1cc(C)cc(NC(=O)Cc2csc(C)n2)c1`, the survival was inactive: 80%. For `CC(=O)c1ccc(S(=O)(=O)N2CCn3cccc3C2c2ccccc2F)cc1` (configuration not stated), the survival was inactive: 85%. `COc1cccc(NC(=O)CSc2nc3c([nH]c4ccccc43)c(=O)n2-c2cc(C)cc(C)c2)c1` was tested, and the survival was inactive: 85%. `CC1=NN(C(=S)c2ccccc2)C(C)(O)C1` (configuration not stated) was tested, and the survival was inactive: 109%. For `COc1ccc(-c2nc3ccccc3n3c(-c4cccc(C)c4)c4c(=O)n(C)c(=O)n(C)c4c23)cc1OC`, the survival was inactive: 77%. For `CCC(C)NC(=O)c1c(C)oc2ncn(CC(C)C)c(=O)c12` (configuration not stated), the survival was inactive: 63%. In the case of `O=C(CCS(=O)(=O)c1cc(Br)cc2c1N(C(=O)C1CC1)CC2)N1CCN(c2cccc(Cl)c2)CC1`, the survival is reported as inactive: 82%. In the case of `CCN(C1CCCCC1)S(=O)(=O)c1ccc(S(=O)(=O)NC2CC2)cc1`, the survival is reported as inactive: 113%. `CCC(=O)N1CCc2cc(S(=O)(=O)NC(C(=O)NCCc3ccc(OC)c(OC)c3)C(C)C)ccc21` (configuration not stated) was tested, and the survival was inactive: 131%. `Cc1cc(C)c(NC(=O)c2nc3ccccc3nc2N2CCCCC2)c(C)c1` was tested, and the survival was inactive: 73%. In the case of `CCCCNC(=O)C1CCC(Cn2c(=O)c3sccc3n(Cc3ccccc3)c2=O)CC1` (configuration not stated), the survival is reported as inactive: 78%. In the case of `O=C(Cn1c(=O)n(CCc2ccccc2)c(=O)c2cccnc21)Nc1ccc(F)cc1`, the survival is reported as inactive: 80%. With `Cc1cc(C(=O)N2CCN(c3ccccc3)CC2)c2c(C)nn(-c3cccc(F)c3)c2n1` the survival was inactive: 63%. `COc1cc(NC(=O)C2CCN(C(=O)c3sc4nc[nH]c(=O)c4c3C)CC2)cc(OC)c1OC` was tested, and the survival was inactive: 112%. `CCCCNC(=O)CSc1nc2cc3c(cc2c(=O)n1CCCC(=O)NCCc1ccc(OC)c(OC)c1)OCO3` was tested, and the survival was inactive: 129%. `CC1=C(C(=O)OC2CCCC2)C(c2c(Cl)cccc2Cl)CC(=O)N1` (configuration not stated) was tested, and the survival was inactive: 88%. For `Cc1ccc(N2C(=O)c3n[nH]c(C)c3C2c2ccc(Cl)cc2)cc1` (configuration not stated), the survival was inactive: 17%. In the case of `Cc1ccc(NC(=O)Cn2nc(C(F)(F)F)c3c2CCCC3)cc1C`, the survival is reported as inactive: 64%. With `O=C(Cc1ccc(F)cc1)N/N=C/c1ccc(-c2ccc(Cl)c(C(=O)O)c2)o1` the survival was inactive: 112%. With `CCOC(=O)c1[nH]c2c(c1Cc1ccccc1OC)C(=O)CC(c1ccc(OC)cc1)C2` (configuration not stated) the survival was inactive: 86%. `Cc1ccc(CNC(=O)c2nn(-c3ccc(Cl)cc3)nc2CO)cc1` was tested, and the survival was inactive: 92%. In the case of `Cc1ccccc1CSc1nnc2[nH]c(=O)cc(-c3ccccc3)n12`, the survival is reported as inactive: 74%. With `CCc1ccc(-n2c(=O)c3c4c(sc3n(Cc3cc(=O)n5c(C)cccc5n3)c2=O)CCC4)cc1` the survival was inactive: 131%. `Cc1cc(C)cc(NC(=O)CSc2oc(-c3ccccc3)nc2S(=O)(=O)c2ccc(Cl)cc2)c1` was tested, and the survival was inactive: 86%. For `CCOC(=O)c1ccccc1NC(=O)Cn1ncc2c1-c1ccccc1OC2`, the survival was inactive: 84%. With `CCc1ccccc1NS(=O)(=O)c1ccc2nc(-c3ccccc3)[nH]c2c1` the survival was inactive: 82%. `CC(C)OCCCNC(=O)C(=O)Nc1c2c(nn1-c1ccccc1)CS(=O)(=O)C2` was tested, and the survival was active: -6%. In the case of `O=C(O)CNC(=O)c1sc2ccccc2c1Cl`, the survival is reported as inactive: 122%. With `Cc1ccc2c(c1)N(CC(=O)NCCc1ccccc1)C(=O)CO2` the survival was inactive: 77%. `O=C(O)c1ccc(-c2ccc(/C=N/N3C(=O)C4C(C3=O)C3C=CC4C34CC4)o2)cc1` (configuration not stated) was tested, and the survival was inactive: 110%.
